# In a collection of fitness landscapes (doi:10.1016/j.celrep.2020.107928):
# Whole data set: some 81,000 sequences, median “one-hybrid fitness for binding parS DNA” near -0.17, cut for the highest 2% near 0.51. This is one part of the list.
# B1: Caulobacter ParB omega fusion; a variant is named by its letters at X, in order, B8GW30 (parent)
# chain: MESVVVGEPGMSEGRRGLGRGLSALLGEVDAAPAQAPGEQLGGSREAPIEILQRNPDQPRRTFREEDLEDLSNSIREKGVLQPILVRPSPDTAGEYQIVAGERAWRAAQRAGLKTVPIMVRELDDLAVLEIGIIENVQRADLNVLEEALSYKVLMEKFERTQENIAQTIGKSXSHVANXMRLLXLPDEVQSYLVSGELTAXHARAIAAAADPVALAKQIIEGGLSVRETEALARKAPNLSAGKSKGGRPPRVKDTDTQALESDLSSVLGLDVSIDHRGSTGTLTITYATLEQLDDLCNRLTRGI
# Variants of: B1
# Experiment: one-hybrid fitness for binding parS DNA (scaled: cognate 1, non-cognate 0); higher = stronger binding
# Settings: with parS DNA site
# How it was run: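 Bacterial one-hybrid selection in E. coli USO rpoZ- hisB- pyrF- with a HIS3 reporter carrying the site 19 bp from the promoter, screening Caulobacter ParB libraries with four specificity codons randomised (NNS). Cells grew 48 hours at 37°C on M9-minus-histidine plus 0.1 mM IPTG and 5 mM 3-AT. Plasmids before and after selection were Illumina-sequenced, three replicate libraries pooled, and variants under 10 reads dropped. Fitness is the log change in variant-to-wild-type read ratio, rescaled to cognate 1, non-cognate 0.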
row,Variant,one-hybrid fitness for binding parS DNA
1,IRMS,≤ 0.2
2,ILIH,≤ 0.2
3,EWDA,≤ 0.2
4,HQRC,≤ 0.2
5,KEND,≤ 0.2
6,TFHG,≤ 0.2
7,FPHS,≤ 0.2
8,DLSL,≤ 0.2
9,WEYM,≤ 0.2
10,VATY,≤ 0.2
11,NVTP,≤ 0.2
12,TACL,≤ 0.2
13,YDCT,≤ 0.2
14,QKCC,≤ 0.2
15,YWLT,≤ 0.2
16,RRLD,≤ 0.2
17,FGPF,≤ 0.2
18,TVGW,≤ 0.2
19,GLWR,≤ 0.2
20,QFTR,≤ 0.2
21,KPPA,≤ 0.2
22,LRMG,≤ 0.2
23,YGSP,≤ 0.2
24,TPVQ,≤ 0.2

row,Variant,one-hybrid fitness for binding parS DNA
1,SYSK,≤ 0.2
2,ASPA,≤ 0.2
3,GFST,≤ 0.2
4,QQSY,≤ 0.2
5,TSAP,≤ 0.2
6,DIPS,≤ 0.2
7,NVLP,≤ 0.2
8,WVPI,≤ 0.2
9,WPAR,≤ 0.2
10,AFTY,≤ 0.2
11,LYNE,≤ 0.2
12,RLYV,≤ 0.2
13,TGRL,≤ 0.2
14,NSSL,≤ 0.2
15,GRQF,≤ 0.2
16,YHSR,≤ 0.2
17,QADH,≤ 0.2
18,FKKC,≤ 0.2
19,DTTS,≤ 0.2
20,DNDR,≤ 0.2
21,FVHG,≤ 0.2
22,MYKA,≤ 0.2
23,RRFS,0.743
24,QLCR,≤ 0.2

row,Variant,one-hybrid fitness for binding parS DNA
1,AWWV,≤ 0.2
2,TELA,≤ 0.2
3,TPIE,≤ 0.2
4,GTGG,≤ 0.2
5,RCMN,0.448
6,NSPS,≤ 0.2
7,NAMD,≤ 0.2
8,QIHD,≤ 0.2
9,WDSG,≤ 0.2
10,RHKM,0.358
11,EMIS,≤ 0.2
12,DWKF,≤ 0.2
13,HDYC,≤ 0.2
14,MFGS,≤ 0.2
15,AATH,≤ 0.2
16,QFTA,≤ 0.2
17,TADS,≤ 0.2
18,ECLG,≤ 0.2
19,GRMF,≤ 0.2
20,HLPI,≤ 0.2
21,NMPA,≤ 0.2
22,KTIC,≤ 0.2
23,VRKT,≤ 0.2
24,GWPW,≤ 0.2

row,Variant,one-hybrid fitness for binding parS DNA
1,SYVG,≤ 0.2
2,SAYV,≤ 0.2
3,SVEV,≤ 0.2
4,GPHS,≤ 0.2
5,NLPM,≤ 0.2
6,ALPI,≤ 0.2
7,GPWM,≤ 0.2
8,ILGV,≤ 0.2
9,PIGA,≤ 0.2
10,YHWR,≤ 0.2
11,CHQA,≤ 0.2
12,AKIM,≤ 0.2
13,KQQC,≤ 0.2
14,KWRC,≤ 0.2
15,STRN,≤ 0.2
16,QTSF,≤ 0.2
17,IHDA,≤ 0.2
18,LWER,≤ 0.2
19,LQFT,≤ 0.2
20,FCTC,≤ 0.2
21,TPPA,≤ 0.2
22,TLAL,≤ 0.2
23,PSWM,≤ 0.2
24,NILG,≤ 0.2

row,Variant,one-hybrid fitness for binding parS DNA
1,PAVL,≤ 0.2
2,PCET,≤ 0.2
3,CKSF,≤ 0.2
4,PTQA,≤ 0.2
5,RVTG,0.992
6,DGDP,≤ 0.2
7,YSAW,≤ 0.2
8,VAKL,≤ 0.2
9,IVKS,≤ 0.2
10,FVSR,≤ 0.2
11,QVKK,≤ 0.2
12,QCGQ,≤ 0.2
13,CGAF,≤ 0.2
14,KHKA,≤ 0.2
15,HRRQ,≤ 0.2
16,SNIK,≤ 0.2
17,FWPY,≤ 0.2
18,KVPW,≤ 0.2
19,SYRL,≤ 0.2
20,PMEF,≤ 0.2
21,KTNT,≤ 0.2
22,VGAS,≤ 0.2
23,GAAT,≤ 0.2
24,NYLL,≤ 0.2

row,Variant,one-hybrid fitness for binding parS DNA
1,VWER,≤ 0.2
2,KIAI,≤ 0.2
3,WLRT,≤ 0.2
4,LTDT,≤ 0.2
5,NSVR,≤ 0.2
6,IVRW,≤ 0.2
7,SPYS,≤ 0.2
8,IYTC,≤ 0.2
9,GLRF,≤ 0.2
10,WTDD,≤ 0.2
11,YFMT,≤ 0.2
12,DFSG,≤ 0.2
13,SFFR,≤ 0.2
14,KRHD,≤ 0.2
15,MREN,≤ 0.2
16,REAN,≤ 0.2
17,HDAG,≤ 0.2
18,ARIN,≤ 0.2
19,THPT,≤ 0.2
20,PWRI,≤ 0.2
21,INAG,≤ 0.2
22,EGHK,≤ 0.2
23,YCAA,≤ 0.2
24,WQLG,≤ 0.2

row,Variant,one-hybrid fitness for binding parS DNA
1,HMKG,≤ 0.2
2,IWAS,≤ 0.2
3,RQPG,0.514
4,TPMV,≤ 0.2
5,VKHD,≤ 0.2
6,DYWS,0.31
7,QTEW,≤ 0.2
8,NGVL,≤ 0.2
9,WQDG,≤ 0.2
10,SPRW,≤ 0.2
11,TREP,≤ 0.2
12,APLV,≤ 0.2
13,CQTP,≤ 0.2
14,QPFT,≤ 0.2
15,GGHV,≤ 0.2
16,ADNQ,≤ 0.2
17,TGHT,≤ 0.2
18,CIEL,≤ 0.2
19,KSHI,≤ 0.2
20,PACS,≤ 0.2
21,CMNP,≤ 0.2
22,QKGI,≤ 0.2
23,DYGT,≤ 0.2
24,DKQI,≤ 0.2

row,Variant,one-hybrid fitness for binding parS DNA
1,GIEL,≤ 0.2
2,SAVY,≤ 0.2
3,TLIG,≤ 0.2
4,WQQR,≤ 0.2
5,QTKD,≤ 0.2
6,TCHV,≤ 0.2
7,RSNS,0.959
8,LMTQ,≤ 0.2
9,FDKR,≤ 0.2
10,RFGW,≤ 0.2
11,MQVH,≤ 0.2
12,SRTG,≤ 0.2
13,HSCW,≤ 0.2
14,DVDT,≤ 0.2
15,APYH,≤ 0.2
16,DHTG,≤ 0.2
17,TSSD,≤ 0.2
18,GPTR,≤ 0.2
19,SGQG,≤ 0.2
20,HDLD,≤ 0.2
21,VKRT,≤ 0.2
22,DIGG,≤ 0.2
23,QCGN,≤ 0.2
24,FICS,≤ 0.2

row,Variant,one-hybrid fitness for binding parS DNA
1,ADPR,≤ 0.2
2,RERK,≤ 0.2
3,IKTF,≤ 0.2
4,MHLI,≤ 0.2
5,TLVG,≤ 0.2
6,VKYA,≤ 0.2
7,RKWW,0.244
8,AEPE,≤ 0.2
9,KCEI,≤ 0.2
10,DDRY,≤ 0.2
11,NYNT,≤ 0.2
12,MCKR,≤ 0.2
13,TKPR,≤ 0.2
14,HVDR,≤ 0.2
15,LDLC,≤ 0.2
16,NITD,≤ 0.2
17,MYHS,≤ 0.2
18,IGVR,≤ 0.2
19,PTKY,≤ 0.2
20,YVAW,≤ 0.2
21,IMYD,≤ 0.2
22,DGVK,≤ 0.2
23,RQVS,0.937
24,FPKS,≤ 0.2

row,Variant,one-hybrid fitness for binding parS DNA
1,LPTL,≤ 0.2
2,SNSE,≤ 0.2
3,SHHP,≤ 0.2
4,NICT,≤ 0.2
5,PAIC,≤ 0.2
6,QYAY,≤ 0.2
7,AFTE,≤ 0.2
8,QPSS,≤ 0.2
9,YCSF,≤ 0.2
10,HFMG,≤ 0.2
11,HYLY,≤ 0.2
12,CLVD,≤ 0.2
13,DSWV,≤ 0.2
14,ALRR,≤ 0.2
15,HNNV,≤ 0.2
16,LSQY,≤ 0.2
17,CMTG,≤ 0.2
18,HGTE,≤ 0.2
19,HRQS,0.374
20,WKRG,≤ 0.2
21,AGRI,≤ 0.2
22,LTKV,≤ 0.2
23,RCVL,≤ 0.2
24,EYLS,≤ 0.2

row,Variant,one-hybrid fitness for binding parS DNA
1,TPGL,≤ 0.2
2,PETT,≤ 0.2
3,KTLR,≤ 0.2
4,FVAG,≤ 0.2
5,CLMF,≤ 0.2
6,VESW,≤ 0.2
7,KVAR,≤ 0.2
8,EARP,≤ 0.2
9,DIHE,≤ 0.2
10,PCLF,≤ 0.2
11,PPCA,≤ 0.2
12,AWPY,≤ 0.2
13,KRMF,≤ 0.2
14,KDHT,≤ 0.2
15,TPKN,≤ 0.2
16,FGKR,≤ 0.2
17,PADY,≤ 0.2
18,SSVF,≤ 0.2
19,TLCN,≤ 0.2
20,HDNG,≤ 0.2
21,IMNR,≤ 0.2
22,SHKF,≤ 0.2
23,PQCN,≤ 0.2
24,TMPW,≤ 0.2

row,Variant,one-hybrid fitness for binding parS DNA
1,RRMH,≤ 0.2
2,QNMS,≤ 0.2
3,NESR,≤ 0.2
4,EGKC,≤ 0.2
5,HLRY,≤ 0.2
6,EGPF,≤ 0.2
7,FFVS,≤ 0.2
8,ISEC,≤ 0.2
9,QTHF,≤ 0.2
10,YRKK,≤ 0.2
11,GALN,≤ 0.2
12,FMIR,≤ 0.2
13,HDTN,≤ 0.2
14,GFSS,≤ 0.2
15,ESRA,≤ 0.2
16,DQYR,≤ 0.2
17,SGVA,≤ 0.2
18,SHIK,≤ 0.2
19,FDRF,≤ 0.2
20,RCHI,≤ 0.2
21,RHWP,≤ 0.2
22,TIDC,≤ 0.2
23,TPAT,≤ 0.2
24,APRC,≤ 0.2

row,Variant,one-hybrid fitness for binding parS DNA
1,CFTY,≤ 0.2
2,WSRY,≤ 0.2
3,EPQG,≤ 0.2
4,KKMS,≤ 0.2
5,NHMG,≤ 0.2
6,GGVS,≤ 0.2
7,SGSW,≤ 0.2
8,RGAQ,≤ 0.2
9,CPQS,≤ 0.2
10,RHGC,0.896
11,WVIS,≤ 0.2
12,GHGR,≤ 0.2
13,KLHK,≤ 0.2
14,MCWG,≤ 0.2
15,NPRH,≤ 0.2
16,PMKI,≤ 0.2
17,CRYL,≤ 0.2
18,NRQL,≤ 0.2
